The list shows a part of the results.
T1: UNK ZnF1-6 (called full-length) (human, UniProt Q9C0B0 30-357)
T1 sequence: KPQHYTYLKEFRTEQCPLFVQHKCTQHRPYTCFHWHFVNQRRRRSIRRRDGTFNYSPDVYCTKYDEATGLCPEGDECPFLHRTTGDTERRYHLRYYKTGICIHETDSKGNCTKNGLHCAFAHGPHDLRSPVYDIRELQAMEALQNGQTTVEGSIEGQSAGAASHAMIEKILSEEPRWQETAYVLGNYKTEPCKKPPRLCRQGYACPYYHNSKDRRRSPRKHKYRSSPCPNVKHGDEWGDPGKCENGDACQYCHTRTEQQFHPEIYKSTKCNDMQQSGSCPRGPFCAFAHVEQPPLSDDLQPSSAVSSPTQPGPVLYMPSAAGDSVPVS

B1: chr3:11557766:11557867:-|3pUTR|ENSG00000144560|msi1|total|mutant (ssRNA)
RNA: GGGAGUUCUACAGUCCGACGAUCCUGGACUGCAGACUCUACCAAUCACGGGCAUUUUAUCUUCUCUGAACACUGCAGUUUGUCCGACCCGAGCUGAGGUUGGAGGAUUCCACCGUGCUUUAAACGUGAUGCAUGUUUUAAUGGCAACAGAGGAUUGAGCAUCA
B2: chr3:66380370:66380471:-|CDS|ENSG00000144749|msi1|FALSE|unique (ssRNA)
RNA: GGGAGUUCUACAGUCCGACGAUCCGGUCAAGUGGGGGUCUGACAGGUUCGUUCUUUCCUUGUAGGGGAUUCUUCCUGGACUUUAGCAAGGUUGUAUCACCCGGACUCCACAGAGCUACAGCCUGCAUCUUCAUUAACUUCAGGCAACAGAGGAUUGAGCAUCA
B3: chr12:108645191:108645284:-|3pUTR|ENSG00000110880|msi1_unk|total|mutant (ssRNA)
RNA: GGGAGUUCUACAGUCCGACGAUCUCUUUUUUUUUUUUUUUUUUUAAGCCAUGACAUCCCAGAAGAGGACAGUGAAUUACUCCCCGGUCGGCUCUUACCGAGUGGCCACCGUGUUCUGUCAAAACACUUGCUUCCAUUUUCAGACAACAGAGGAUUGAGCAUCA
B4: chr3:51403142:51403395:-|CDS|ENSG00000145041|control|control|control (ssRNA)
RNA: GGGAGUUCUACAGUCCGACGAUCCGCAGGGGAAGAUGGGGACAAUGACUUCUCUCCCUCUGAUGAGGAGCUAGCAAACCUUCUAGAGGAGGGAGAGGACGGGGAGGAUGAAGACUCUGAUGCAGAUGAGGAGGUGGAACUGAUCAACAGAGGAUUGAGCAUCA
B5: chr15:69268886:69268987:+|CDS|ENSG00000138604|unk|total|mutant (ssRNA)
RNA: GGGAGUUCUACAGUCCGACGAUCGGAGUUAAAGCUGUGUUUAUGAAUAAACAUGACUGGUAUGAAGAAUAUCCAACCACACCCCGCUCUUUUGUUUUAAAUGGCUUUAUGUAUUCUUUAAUUGGGCUGUAUGACUUAAAAGAACAACAGAGGAUUGAGCAUCA
B6: chr11:43342853:43342954:+|3pUTR|ENSG00000166181|msi1|FALSE|unique (ssRNA)
RNA: GGGAGUUCUACAGUCCGACGAUCCUAGUUCUGCUGAUAAAGAUCAUCAGUUUUGAAAGGUUACUGAUUUUCCUCUUCCCUCUUAGUUUUUUACCCAAUAUAUGGAGAAGAGUAAUGGUCAAUCUUAACAUUUUGUUUUAAUUGCAACAGAGGAUUGAGCAUCA
B7: chr5:171410733:171410822:+|3pUTR|ENSG00000181163|msi1_unk|FALSE|overlapping (ssRNA)
RNA: GGGAGUUCUACAGUCCGACGAUCGUUUUUAAAGAUGGAACUCCACCCUUUGCUUGGUUUUAAGUAUGUAUGGAAUGUUAUGAUAGGACAUAGUAGUAGCGGUGGUCAGACAUGGAAAUGGUGGGGAGACAAAAAUAUACAUGUCAACAGAGGAUUGAGCAUCA
B8: chr11:2928445:2928542:-|3pUTR|ENSG00000181649|msi1_unk|FALSE|overlapping (ssRNA)
RNA: GGGAGUUCUACAGUCCGACGAUCAUUGGACUAUCUAAUAUCUAUGUAUUUAUUUCGCUGGUUCUUUGUAGUCACAUAUUUUAUAGUCUUAAUAUCUUGUUUUUGCAUCACUGUGCCCAUUGCAAAUAAAUCACUUGGCCAGUUCAACAGAGGAUUGAGCAUCA
B9: ENSG00000198589:be:win_8701|3pUTR|ENSG00000198589|bound_else_gene|NA|bound_elsewhere_windowed (ssRNA)
RNA: GGGAGUUCUACAGUCCGACGAUCUGUAGUCUUUGCUUGACUUUUUUGGGGGGGAUUAGCAAAGCAGAAAACUGGCUGCUGGGUUCUGUAGUUUUAAAAAAUCUAUAUUUUUAGUCAUAAUGAGAAGUCUAUUUUCACCAAUUACAACAGAGGAUUGAGCAUCA
B10: chr15:41696124:41696239:+|CDS|ENSG00000174197|unk|total|mutant (ssRNA)
RNA: GGGAGUUCUACAGUCCGACGAUCUGCCGCCUCACCGUCCGACCAGAACGGAAGCUUCAAUGUUGUUAUUAAAGAGGAACCUCCCGAUGAUUAUGACUACGAACUUGGUGAGUGCCCAGAAGGGGUCACUGUGAAACAGGAAGACAACAGAGGAUUGAGCAUCA
B11: chr3:57561443:57561544:+|3pUTR|ENSG00000174840|unk|FALSE|unique (ssRNA)
RNA: GGGAGUUCUACAGUCCGACGAUCGAAAUUUAAAUAUGAAGCCAAACUUUUUAAAAUUAGAAACUACAAAUGGUUAUACUGAUUAGUGUCUAGCCUAGAGUGGUAACCAUGCUUUACUAAUUCAGUUAUGAAAUACAUUAUUUACAACAGAGGAUUGAGCAUCA
B12: chr21:42918526:42919006:-|CDS|ENSG00000233056|control|control|control (ssRNA)
RNA: GGGAGUUCUACAGUCCGACGAUCAAUUGGACAAUGGGGAGUAAACACUCAGGUGCUUGAGGACAUAAAGAGAGAACAGAUUAUAGCCAAAGCCAAAGCCUCAAAACCAACAACUCCCCCUGAAAAUCGCCCGCGGCAUUUCCACAACAGAGGAUUGAGCAUCA
B13: chr12:109850944:109852737:-|three_prime_utr|ENSG00000139433|control|control|control (ssRNA)
RNA: GGGAGUUCUACAGUCCGACGAUCGCUCUCCAAGGGGCAGAAUGUUACGGAGGAGGAGUGCCUGGAGAAGAUCCGCCUCUUCCUAGUCAACUACACGGCGACCAUCGAUGUCAUCUACGAGAUGUACACCCAGAUGAACGCUGACAACAGAGGAUUGAGCAUCA
B14: chr16:88863332:88863755:-|three_prime_utr|ENSG00000205022|control|control|control (ssRNA)
RNA: GGGAGUUCUACAGUCCGACGAUCCAGAGGAGAGGGGUGUCCAGAGCAGCCACUGGCCCCCUCUUGGCGGGGGGAUGGCCCAGUAGGGCCUUGUAUGGUGGUCCAGACCCAAGGCCACAGCCACGAGUCACAGCCACGGCCCGGCAACAGAGGAUUGAGCAUCA

Biological target: T1, UNK ZnF1-6 (called full-length)
Assay: nsRBNS (natural sequence RNA bind-n-seq); RBNS binding buffer (assumed for nsRBNS): 25 mM Tris pH 7.5, 150 mM KCl, 3 mM MgCl2, 0.01% Triton X-100, 500 ug/ml BSA, 20 U/ml SUPERase-In, 4 C; UNK is unkempt and MSI1 is Musashi-1; names of the RNAs are library labels; protein concentration not given here; high values mean tight binding

Row | Binder | binding signal [enrichment R]
1 | B1 | 0.682
2 | B2 | 0.961
3 | B3 | 4.25
4 | B4 | 0.96
5 | B5 | 0.547
6 | B6 | 3.5
7 | B7 | 1.83
8 | B8 | 5.74
9 | B9 | 29
10 | B10 | 0.514
11 | B11 | 4.95
12 | B12 | 0.684
13 | B13 | 0.497
14 | B14 | 0.848
